The list shows a part of the results. Single values are uncertain, as repeats are few or missing.
These compounds were tested on UACC62 (assay: cell count relative to DMSO control; melanoma cells; higher = more viable cells). Settings: library dose: standard library concentration; 72 h.
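Also: cells treated in 1,536-well plates, then fixed and DAPI-stained, with nuclei counted from automated high-throughput microscope images.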

| Compound | cell count [%] |
| --- | --- |
| CC1(C)CCC(c2ccc(Cl)cc2)=C(CN2CCN(c3ccc(C(=O)NS(=O)(=O)c4ccc(N[C@H](CCN5CCOCC5)CSc5ccccc5)c(S(=O)(=O)C(F)(F)F)c4)cc3)CC2)C1 + CCN(CC)CCCCNc1ncc2cc(-c3cc(OC)cc(OC)c3)c(NC(=O)NC(C)(C)C)nc2n1 [PD173074] (first compound 2 µM, partner dose 0.5 µM) | 69.8 |
| CC1(C)CCC(c2ccc(Cl)cc2)=C(CN2CCN(c3ccc(C(=O)NS(=O)(=O)c4ccc(N[C@H](CCN5CCOCC5)CSc5ccccc5)c(S(=O)(=O)C(F)(F)F)c4)cc3)CC2)C1 + Oc1cc(-c2nc(-c3ccccc3)[nH]c2-c2ccncc2)ccc1Cl [L779450] (first compound 2 µM, partner dose 1 µM) | 40.7 |
| CC1(C)CCC(c2ccc(Cl)cc2)=C(CN2CCN(c3ccc(C(=O)NS(=O)(=O)c4ccc(N[C@H](CCN5CCOCC5)CSc5ccccc5)c(S(=O)(=O)C(F)(F)F)c4)cc3)CC2)C1 + O=c1cc(-c2cccc3c2Sc2ccccc2S3)oc(N2CCOCC2)c1 [KU55933] (first compound 2 µM, partner dose 5 µM) | 74.6 |
| O=C(/C=C/c1cccnc1)NCCCCC1CCN(C(=O)c2ccccc2)CC1 + c1cc(-c2cnn3cc(-c4ccc(OCCN5CCCCC5)cc4)cnc23)ccn1 [Dorsomorphin] (first compound 0.05 µM, partner dose 2 µM) | 73.8 |
| Cc1ccc(Nc2nccc(N(C)c3ccc4c(C)n(C)nc4c3)n2)cc1S(N)(=O)=O [Pazopanib] + O=C(O)C(=O)Nc1sc2c(c1C(=O)O)CCNC2 [TCS401] (first compound 2 µM, partner dose 8.33333 µM) | 81.5 |
| Cc1ccc(Nc2nccc(N(C)c3ccc4c(C)n(C)nc4c3)n2)cc1S(N)(=O)=O [Pazopanib] + COc1ccc(-c2ccc3c(N4CCOCC4)nc(N4C[C@@H](C)O[C@@H](C)C4)nc3n2)cc1CO [KU0063794] (first compound 2 µM, partner dose 0.1 µM) | 99.3 |
| Cc1ccc(Nc2nccc(N(C)c3ccc4c(C)n(C)nc4c3)n2)cc1S(N)(=O)=O [Pazopanib] + Cc1cc([N+](=O)[O-])ccc1NS(=O)(=O)c1cc(Cl)ccc1Cl [FH535] (first compound 2 µM, partner dose 5 µM) | 58.6 |
| O=C(/C=C/c1cccnc1)NCCCCC1CCN(C(=O)c2ccccc2)CC1 + Oc1nc(-c2ccc(C(F)(F)F)cc2)nc2c1CSCC2 [XAV939] (first compound 0.05 µM, partner dose 10 µM) | 61.6 |
| CC1(C)CCC(c2ccc(Cl)cc2)=C(CN2CCN(c3ccc(C(=O)NS(=O)(=O)c4ccc(N[C@H](CCN5CCOCC5)CSc5ccccc5)c(S(=O)(=O)C(F)(F)F)c4)cc3)CC2)C1 + COc1ccc(COc2ccc(Cc3cnc(N)nc3N)cc2OC)cc1 [GW2580] (first compound 2 µM, partner dose 5 µM) | 73.4 |
| O=C(/C=C/c1cccnc1)NCCCCC1CCN(C(=O)c2ccccc2)CC1 + NCC(=O)Nc1ccc(-n2nc(C(F)(F)F)cc2-c2ccc3c(ccc4ccccc43)c2)cc1 [OSU03012] (first compound 0.05 µM, partner dose 5 µM) | 74.2 |
| CC1(C)CCC(c2ccc(Cl)cc2)=C(CN2CCN(c3ccc(C(=O)NS(=O)(=O)c4ccc(N[C@H](CCN5CCOCC5)CSc5ccccc5)c(S(=O)(=O)C(F)(F)F)c4)cc3)CC2)C1 + O=C(Nc1cccc(Cl)c1)Nc1ncc(CCNc2ncnc3ccsc23)s1 [SNS314] (first compound 2 µM, partner dose 0.004 µM) | 72.7 |
| CC1(C)CCC(c2ccc(Cl)cc2)=C(CN2CCN(c3ccc(C(=O)NS(=O)(=O)c4ccc(N[C@H](CCN5CCOCC5)CSc5ccccc5)c(S(=O)(=O)C(F)(F)F)c4)cc3)CC2)C1 + Oc1nc(-c2ccc(C(F)(F)F)cc2)nc2c1CSCC2 [XAV939] (first compound 2 µM, partner dose 10 µM) | 78.9 |
| O=C(/C=C/c1cccnc1)NCCCCC1CCN(C(=O)c2ccccc2)CC1 + O=C(O)C(=O)Nc1sc2c(c1C(=O)O)CCNC2 [TCS401] (first compound 0.05 µM, partner dose 8.33333 µM) | 79.6 |
